Experimental data published in PMC7564666.
These are yes or no findings as the source states them, for the method shown. Binding seen in cells or lysates may run through a third protein. Some binding calls cover weakened binding; strength is not graded here. Tags and fused reporters may be left off the sequences shown.

Experiments:
Assay in all cases: pull-down; 1.5 nmol GST-LASP1 or its domains on glutathione-agarose beads with 1 mg of 231S total protein lysate, 2 h at 4 °C, washed with lysis buffer (100 mM NaCl, 50 mM Tris pH 8.0, 0.1% deoxycholate, 0.1% IGEPAL CA-630, 5 mM EDTA); Western blot; only the target purified
[1] = molecular target: T1, GST-LASP1 LIM domain (residues 1–60) (human) (UniProt Q14847)
T1 sequence: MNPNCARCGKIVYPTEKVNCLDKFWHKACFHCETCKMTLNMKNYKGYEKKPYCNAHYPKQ

[2] = molecular target: T2, GST-LASP1 (full length LIM and SH3 Protein 1, residues 1–261) (human) (UniProt Q14847)
T2 sequence: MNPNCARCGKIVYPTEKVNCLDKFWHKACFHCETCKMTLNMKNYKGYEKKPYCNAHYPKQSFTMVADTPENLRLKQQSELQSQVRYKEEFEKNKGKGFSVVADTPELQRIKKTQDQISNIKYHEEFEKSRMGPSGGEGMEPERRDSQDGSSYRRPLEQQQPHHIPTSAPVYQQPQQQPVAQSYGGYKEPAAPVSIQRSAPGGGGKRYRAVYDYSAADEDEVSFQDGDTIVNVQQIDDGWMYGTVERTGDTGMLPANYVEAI

[3] = molecular target: T3, GST-LASP1 SH3 domain (residues 200–261) (human) (UniProt Q14847)
T3 sequence: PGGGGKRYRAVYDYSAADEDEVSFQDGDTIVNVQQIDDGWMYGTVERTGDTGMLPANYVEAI

- binding [1]: no binding
- binding [2]: binds
- binding [3]: binds
Substance: Argonaute 1 (Ago1), endogenous (from UniProt Q9UL18 1-857)
